The campaign covered roughly 44,000 compounds. About 340 (0.77%) were called active. Another 5% or so got no clear call; they are omitted. Calls come from the whole dose curve; as a rule, active = well fitted inhibition curve with a large enough effect; inconclusive = small, poorly fitted or top-dose-only effect; inactive = flat fitted curve, though single readings scatter. The list shows a part of the results.
Assay: Acumen qHTS Assay for Inhibitors of the mTORC1 Signaling Pathway in MEF (Tsc2-/-, p53-/-) Cells: Sytravon; note: nearly all actives have a fitted effect of over 50% in size;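 for activity change, negative = inhibition: plate controls were DMSO for no effect and rapamycin for full effect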
Conditions: phospho-rpS6 immunofluorescence/PI, 24 h; series mostly up to 38.3 µM; activity change, negative = inhibition: at the top concentration
Procedure, shortened: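 Cell-based qHTS: Tsc2-/- p53-/- MEF, 24 h cpd, 37 °C; fix/perm, anti-phospho-S6 Alexa-488 + PI; Acumen 488 nm scan; pS6/PI ratio, % positive cells; rapamycin 7.5 nM = inhibition ref; PI count = viability.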
Potency is the fitted concentration of half-maximal effect.

Compound	activity change, negative = inhibition	Potency
COc1cc(OC)cc(N2C(=O)N(Cc3ccc(C(C)(C)C)cc3)c3ccccc3S2(=O)=O)c1	inactive: -5.65%	–
Cc1nn(-c2ccc(N3CCCCC3)nn2)c(C)c1CCC(=O)Nc1ccc(F)cc1F	inactive: 0%	–
Cc1nc2ccc(S(=O)(=O)CCC(=O)Nc3ccc(Cl)cc3)cc2s1	inactive: -18.3%	–
COc1cccc(NC(=O)CC(=O)Nc2ccc3nc4n(c(=O)c3c2)CCCCC4)c1	inactive: -0.657%	–
COC(=O)c1scc(-c2ccc(C)cc2)c1S(=O)(=O)N1CCN(c2ccccc2)CC1	inactive: -14.4%	–
Nc1c(C(=O)Nc2ccccc2Cl)c2ccccn2c1C(=O)c1ccccc1	inactive: -6.71%	–
CCOc1ccc(NC(=O)c2c(NCc3cccc(OC)c3OC)sc3c2CCC3)cc1	inactive: -6.88%	–
CCc1ccc(NC(=O)CN(c2ccc(Cl)cc2)S(=O)(=O)c2ccsc2C(=O)OC)cc1	inactive: -7.55%	–
O=C(C1CCCN(S(=O)(=O)c2cccc3nsnc23)C1)N1CCN(c2ccccc2)CC1 (centres undefined)	inactive: 3.43%	–
COc1ccc(OC)c(CNC(=O)c2ccc3c(c2)c(C)c(C)n3Cc2ccc(Cl)cc2)c1	inactive: -6.6%	–
CCOC(=O)N1CCN(C(=O)CN(c2ccccc2F)S(=O)(=O)c2ccc(C)cc2)CC1	inactive: 2.44%	–
Cc1cc(N2CCC(C)CC2)nc2ccc(NC(=O)Cc3c(F)cccc3Cl)cc12	inactive: 0%	–
Cc1ccc(Cn2cc(S(=O)(=O)c3cccc(Cl)c3)c(=O)c3cc(F)c(N4CCCCC4)cc32)cc1	inactive: -5.03%	–
Cc1cc(C)cc(NC(=O)CSc2nc(=O)n(CCN3CCOCC3)c3c2CCC3)c1	inactive: -0.601%	–
COC(=O)c1c(NC(=O)Cc2coc3cc(C)ccc23)sc2c1CCC2	inactive: -0.848%	–
Cc1ccc(Cl)cc1NC(=O)CSc1nccn1C	inactive: -0.692%	–
O=C(NCc1cccs1)c1ccc2c(c1)N(Cc1cccc(F)c1)C(=O)c1ccccc1S2	inactive: 3.83%	–
CCOC(=O)c1noc2nc(C)n(CC(=O)NC(C)CC)c(=O)c12 (centres undefined)	inactive: 4.43%	–
CC(=O)c1cccc(NC(=O)CSc2nc(=O)n(Cc3ccco3)c3c2CCC3)c1	inactive: -0.255%	–
CCOc1ccccc1CNC(=O)c1ccc2c(c1)N(Cc1ccc(C)cc1)CCS2	inactive: 3.04%	–
CCCCN(CC)C(=O)c1nn(C)c2c1CSc1ccccc1-2	inactive: -81.8%	–
Cc1oc(-c2cccc(Cl)c2)nc1CS(=O)(=O)CC(=O)NC(C)CCc1ccccc1 (centres undefined)	inactive: -2.09%	–
O=C(NCCc1ccccc1Cl)C1CCN(c2nc3ccccc3nc2C(F)(F)F)CC1	inactive: 0%	–
COc1ccc(-n2c(-c3ccco3)nc3c(cnn3-c3ccc(Cl)cc3)c2=O)cc1	inactive: 1.77%	–

Compound	activity change, negative = inhibition	Potency
CC1(C)O[C@H]2[C@@H](O1)[C@@H](C(=O)Nc1ccccc1C(F)(F)F)O[C@@H]1OC(C)(C)O[C@@H]12	inactive: -0.385%	–
O=C(CSc1ccc(-c2cccs2)nn1)Nc1ccccc1C(F)(F)F	inactive: -8.47%	–
Cc1ccc(NC(=O)C2CCCN(C(=O)c3cnn(-c4ccc(F)cc4)c3-n3cccc3)C2)c(Cl)c1 (centres undefined)	inactive: -0.849%	–
Cc1ccccc1CNC(=O)C(C)N(c1ccccc1)S(C)(=O)=O (centres undefined)	inactive: -3.97%	–
O=C(CCC1N=C2c3ccccc3N=C(SCc3ccc(F)cc3)N2C1=O)NCCc1ccccc1 (centres undefined)	inactive: 0.317%	–
COc1ccc(Cl)cc1NC(=O)C(C)Sc1nc2c(c(=O)[nH]1)CCCC2 (centres undefined)	inactive: 6.95%	–
CCOC(=O)c1cc(S(=O)(=O)Nc2cc(F)ccc2C)[nH]n1	inactive: -3.53%	–
CCCc1nn2c(=O)cc(COC(=O)c3ccccc3NC(=O)COc3ccccc3)nc2s1	inactive: 0%	–
COc1ccc(-c2cc(C(F)(F)F)n3nc(-c4ccccc4)cc3n2)cc1OC	inactive: -6.57%	–
CCc1ccc(NC(=O)Cn2c(=O)n(CCC(C)C)c(=O)c3cccnc32)cc1	inactive: -15.8%	–
CC(=O)Nc1nonc1-c1nnc(SCc2ccccc2F)n1C	inactive: -2.3%	–
CCc1ccccc1NS(=O)(=O)c1ccc2c(c1)CC(=O)N2	inactive: -6.44%	–
Cc1ccc(/C=C/c2onc(C)c2S(=O)(=O)N2CCC(C(=O)Nc3ccccc3C(F)(F)F)CC2)cc1	inactive: -0.0481%	–
CC(=O)c1ccc(N2CCN(c3ncnc4c3c(-c3ccccc3)cn4-c3ccc(Cl)cc3)CC2)cc1	inactive: 15.8%	–
CCCCSc1nnc2n(-c3ccc(OC)cc3)c(=O)c3c4c(sc3n12)COC(C(C)C)C4 (centres undefined)	inactive: -0.0267%	–
COc1cccc(CNC(=O)Cn2nc(-c3ccc(Cl)cc3)ccc2=O)c1	inactive: -15.4%	–
CC(=O)c1ccc(NC(=O)c2cc(C)nc3c2c(C)nn3-c2ccc(C)cc2)cc1	inactive: -0.72%	–
COc1ccc(-n2c(=O)c3c(c4cc(OC)ccc4n3C)n(Cc3cccc(C)c3)c2=O)cc1	inactive: -1.67%	–
COc1ccc2c(c1)c(=O)c(S(=O)(=O)c1ccccc1)cn2CC(=O)Nc1ccc(C)c(Cl)c1	inactive: 0.453%	–
COc1ccc(-n2cc(C(=O)NCCc3cc(OC)ccc3OC)c3ccccc3c2=O)cc1	inactive: 10.7%	–
CCC(C(=O)Nc1cccc(-c2nc3cccnc3s2)c1C)c1ccccc1 (centres undefined)	inactive: -9.82%	–
CCOC(=O)c1c(C)[nH]c(C)c1S(=O)(=O)N1CCCC(C(=O)NCc2ccc(N(C)C)cc2)C1 (centres undefined)	inactive: 6.11%	–
CC(C)CC(=O)Nc1nnc(S(=O)(=O)N(C)Cc2ccc(Cl)cc2)s1	inactive: -0.253%	–
CNC(=O)CSc1cn(CC(=O)N2CCCCCC2)c2ccccc12	inactive: 0.316%	–

Compound	activity change, negative = inhibition	Potency
CC1=C(C(=O)Nc2ccc(C)cc2C)C(c2cccs2)n2nc(SCc3cccc(C)c3)nc2N1 (centres undefined)	inactive: 1.31%	–
COc1ccc(OC)c(NC(=O)CN2C(=O)CC(C)Sc3ccccc32)c1 (centres undefined)	inactive: -5.98%	–
O=C(CCOc1ccccc1)N(Cc1cccnc1)c1nc2ccc(Cl)cc2s1	inactive: -0.351%	–
CCOc1ccc(NC(=O)CSc2oc(-c3ccc(F)cc3)nc2S(=O)(=O)c2ccc(C)cc2)cc1	–	active: 2.93 µM
Cc1ccc(CN(Cc2ccco2)C(=O)c2oc3cc(Br)ccc3c2C)cc1	inactive: -3.34%	–
Clc1ccccc1-c1nnc(COc2ccccc2)o1	inactive: -0.397%	–
Cc1nc2nc(NC(=O)c3ccc(C(C)(C)C)cc3)[nH]n2c(=O)c1Cc1ccccc1	inactive: 1.44%	–
Cc1ccc(-n2c(=O)c3c4c(sc3n(Cc3cc(=O)n5ccccc5n3)c2=O)CCC4)cc1C	inactive: -5.31%	–
COc1ccc(CNC(=O)Cn2ccc3cc(S(=O)(=O)N4CCCCC4)ccc32)cc1OC	inactive: -12.1%	–
O=C1N(Cc2ccccc2Cl)c2ccccc2C1(O)c1c[nH]c2ccccc12 (centres undefined)	inactive: 3.11%	–
COc1cc(CN2CCN(S(=O)(=O)c3ccc(NC(C)=O)cc3)CC2)cc(OC)c1OC	inactive: -10.5%	–
CCn1cc(C(=O)NCCc2ccc(OC)c(OC)c2)c(=O)c2cc(S(=O)(=O)N3CCCCCC3)ccc21	inactive: 0.646%	–
CCOC(=O)c1sc2ccccc2c1S(=O)(=O)Nc1ccc(C(C)=O)cc1	inactive: 0.827%	–
CC(=O)c1ccc(NS(=O)(=O)c2c(C)nc3scc(C)n3c2=O)cc1	inactive: -19.5%	–
Cc1cccc(Cn2c(=O)n(Cc3ccccc3)c(=O)c3c2c2cc(C)ccc2n3C)c1	inactive: -0.947%	–
CCOC(=O)c1cc(C)n(CC2CCC(C(=O)Nc3ccccc3OC)CC2)c1C (centres undefined)	inactive: -13.2%	–
CCc1ccc(N(CC)C(=O)Cn2nc(Cc3cccnc3)c3ccccc3c2=O)cc1	inactive: -0.893%	–
CSc1ncc(C(=O)Nc2ccc(C)c(Cl)c2)c(-c2ccccc2)n1	inactive: -5.56%	–
COc1ccc(Cl)cc1NC(=O)N(C)CCc1c(C)nn(C)c1C	inactive: 0%	–
COc1ccccc1NC(=O)c1oc2ccccc2c1NC(=O)COc1cccc(C)c1	inactive: 1.23%	–
Cc1ccc2oc(-c3ccc(C)c(NC(=O)C(C)(C)Oc4ccc(Cl)cc4)c3)nc2c1	inactive: 11.7%	–
c1coc(-c2nc3ccccn3c2Nc2ccc3c(c2)OCCO3)c1	inactive: 3.86%	–
CCOc1ccc(NC(=O)CCS(=O)(=O)c2ccc3nc(C)sc3c2)cc1	inactive: 1.9%	–
COc1cc(Cl)c(C)cc1NC(=O)c1cnn(-c2ccc(C)cc2)c1-n1cccc1	inactive: -7.33%	–

Compound	activity change, negative = inhibition	Potency
Cc1ccc(Cn2c(SCc3ccc(C(=O)NCCc4ccccc4)cc3)nc3ccncc32)cc1	inactive: -0.177%	–
Cc1nc(-c2ccc(C)c(N3CCN(C(=O)Nc4ccc(Br)cc4)CC3)c2)no1	inactive: -21.1%	–
CCn1cc(S(=O)(=O)c2cccc(C)c2)c(=O)c2cc(F)c(N3CCCCC3C)cc21 (centres undefined)	inactive: -13.1%	–
COc1ccc(-n2c(=O)c3sc4ccccc4c3n(CC(=O)N3CCCC3)c2=O)cc1	inactive: 0.508%	–
COc1ccc(-c2cn3c(n2)sc2cc(C(=O)Nc4ccccc4F)ccc23)cc1	inactive: 9.26%	–
COc1ccc(-n2c(SCC(=O)N3CCCc4ccccc43)nc3c([nH]c4ccccc43)c2=O)cc1	inactive: -1.8%	–
CCc1ccc2occ(CC(=O)Nc3c(C(=O)Nc4ccc(Cl)cc4)oc4ccccc34)c2c1	inactive: -2.24%	–
CN(C)CCNC(=O)c1ccc2nc(CCc3ccccc3)oc2c1	inactive: -6.65%	–
Cc1ccc(CNC(=O)C(=O)NCC(c2cccs2)S(=O)(=O)c2cccs2)cc1 (centres undefined)	inactive: 0.223%	–
CC(C)(C)OC(=O)N1CCC(c2c(C(=O)Nc3ccc4c(c3)OCO4)cnn2-c2ccc(F)cc2F)CC1	inactive: -11.5%	–
Cc1cc(-c2ccc(C)c(S(=O)(=O)N(Cc3cccs3)C(C)C)c2)on1	inactive: -6.26%	–
COc1ccc(NC(=O)/C(C#N)=C/c2ccc(C)o2)cc1	inactive: 0.322%	–
O=C(O)CCCC(=O)N1CCc2cc(S(=O)(=O)NCc3ccccc3)ccc21	inactive: -7.54%	–
Cc1cccc(NC(=O)CCNS(=O)(=O)c2ccc3c(c2)CCCC(=O)N3)c1C	inactive: 2.77%	–
CCOC(=O)c1[nH]c2c(c1Cc1ccccc1)C(=O)CC(c1ccc(OC)cc1)C2 (centres undefined)	inactive: -7.84%	–
CCSc1nc2c([nH]c3ccccc32)c(=O)n1-c1ccc(OC)cc1	inactive: -6.65%	–
CC1CCCN(c2ncnc3c2nc2n3CCCCC2)C1 (centres undefined)	inactive: -3.34%	–
CN(C)c1ccc(CNc2nc(-c3ccco3)nn2S(C)(=O)=O)cc1	inactive: -8.96%	–
CN(C)c1ccc(NC(=O)Cn2c(SCc3ccc(F)cc3)nc3cccnc32)cc1	inactive: -3.08%	–
CCc1ccc(NC(=O)CSC2=Nc3ccccc3C3=NC(CC(=O)NCc4ccc5c(c4)OCO5)C(=O)N23)cc1 (centres undefined)	inactive: -5.88%	–
CCCC(=O)Nc1ccc(NC(=O)c2sc3ccccc3c2Cl)cc1	inactive: -14.5%	–
COCCn1c(SCC(=O)c2ccccc2)nc2cc(C(=O)NC3CCCC3)ccc2c1=O	inactive: 4.86%	–

Source: PubChem BioAssay AID493208 (National Center for Advancing Translational Sciences (NCATS), 2011)
